Experimental data from the supplement of paper PMC4604168 (melanoma cell lines).
Some of the results follow. Repeats are few or missing, and single values can be far off.

System: A2058
Test: cell count relative to DMSO control; melanoma cells; higher = more viable cells
Details: library dose: standard library concentration; 72 h
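Also: cells treated in 1,536-well plates, then fixed and DAPI-stained, with nuclei counted from automated high-throughput microscope images.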

| SMILES | cell count [%] |
| --- | --- |
| CCN(CC)CCNC(=O)c1c(C)[nH]c(/C=C2\C(=O)Nc3ccc(F)cc32)c1C [sunitinib] + CC(C)(C)c1cnc(CSc2cnc(NC(=O)C3CCNCC3)s2)o1 [SNS-032] (first compound 2 µM, partner dose 0.05 µM) | 21.7 |
| Cn1cnc2c(F)c(Nc3ccc(Br)cc3Cl)c(C(=O)NOCCO)cc21 [selumetinib] + O=C(O)c1ccc2c(c1)nc(Nc1cccc(Cl)c1)c1ccncc12 [CX4945] (first compound 0.075 µM, partner dose 2 µM) | 96.1 |
| CCN(CC)CCNC(=O)c1c(C)[nH]c(/C=C2\C(=O)Nc3ccc(F)cc32)c1C [sunitinib] + O=C(O)[C@@H]1[O][Sb](=[O])([O][Sb]2(=[O])[O][C@H]([C@H](O)CO)[C@H](O)[C@H](C(=O)O)[O]2)[O][C@H]([C@H](O)CO)[C@@H]1O [stibogluconate] (first compound 2 µM, partner dose 10 µM) | 72.3 |
| Cn1cnc2c(F)c(Nc3ccc(Br)cc3Cl)c(C(=O)NOCCO)cc21 [selumetinib] + OCCn1cc(-c2cnc3nnn(Cc4ccc5ncccc5c4)c3n2)cn1 [PF04217903] (first compound 0.075 µM, partner dose 5 µM) | 94.7 |
| COc1cc([C@@H]2c3cc4c(cc3[C@@H](O[C@@H]3O[C@@H]5CO[C@@H](C)O[C@H]5[C@H](O)[C@H]3O)[C@H]3COC(=O)[C@H]23)OCO4)cc(OC)c1O [etoposide] + NC1(c2ccc(-c3nc4ccn5c(=O)[nH]nc5c4cc3-c3ccccc3)cc2)CCC1 [MK2206] (first compound 0.1 µM, partner dose 2 µM) | 76.4 |
| C[C@]1(O)C[C@@H](c2nc(-c3ccc4ccc(-c5ccccc5)nc4c3)c3c(N)nccn32)C1 + Cn1c(Nc2ccc(C(F)(F)F)cc2)nc2cc(Oc3ccnc(-c4ncc(C(F)(F)F)[nH]4)c3)ccc21 [CHIR265] (first compound 2 µM, partner dose 0.4 µM) | 82.3 |
| Cn1cnc2c(F)c(Nc3ccc(Br)cc3Cl)c(C(=O)NOCCO)cc21 [selumetinib] + CN(c1ncccc1CNc1nc(Nc2ccc3c(c2)CC(=O)N3)ncc1C(F)(F)F)S(C)(=O)=O [PF562271] (first compound 0.075 µM, partner dose 0.4 µM) | 81.5 |
| Cn1cnc2c(F)c(Nc3ccc(Br)cc3Cl)c(C(=O)NOCCO)cc21 [selumetinib] + NC(=O)Nc1cc(-c2cccc(F)c2)sc1C(=O)N[C@H]1CCCNC1 [AZD7762] (first compound 0.075 µM, partner dose 0.1 µM) | 107 |
| C[C@]1(O)C[C@@H](c2nc(-c3ccc4ccc(-c5ccccc5)nc4c3)c3c(N)nccn32)C1 + O=C(O)c1ccc(-c2c[nH]c3ncc(-c4ccccc4)cc23)cc1C1CCCC1 [GSK650394] (first compound 2 µM, partner dose 0.8 µM) | 107 |
| C[C@]1(O)C[C@@H](c2nc(-c3ccc4ccc(-c5ccccc5)nc4c3)c3c(N)nccn32)C1 + NCC(=O)Nc1ccc(-n2nc(C(F)(F)F)cc2-c2ccc3c(ccc4ccccc43)c2)cc1 [OSU03012] (first compound 2 µM, partner dose 5 µM) | 93.9 |
| COc1cc([C@@H]2c3cc4c(cc3[C@@H](O[C@@H]3O[C@@H]5CO[C@@H](C)O[C@H]5[C@H](O)[C@H]3O)[C@H]3COC(=O)[C@H]23)OCO4)cc(OC)c1O [etoposide] + CO[C@@H]1[C@H](N(C)C(=O)c2ccccc2)C[C@H]2O[C@]1(C)n1c3ccccc3c3c4c(c5c6ccccc6n2c5c31)C(=O)NC4 [Midostaurin] (first compound 0.1 µM, partner dose 0.4 µM) | 41.5 |
| CCN(CC)CCNC(=O)c1c(C)[nH]c(/C=C2\C(=O)Nc3ccc(F)cc32)c1C [sunitinib] + Cc1cc(Nc2cc(N3CCN(C)CC3)nc(/C=C/c3ccccc3)n2)n[nH]1 [ENMD2076] (first compound 2 µM, partner dose 0.2 µM) | 65.1 |
| C[C@]1(O)C[C@@H](c2nc(-c3ccc4ccc(-c5ccccc5)nc4c3)c3c(N)nccn32)C1 + C[C@@H]1CCN(C(=O)CC#N)C[C@@H]1N(C)c1ncnc2[nH]ccc12 [CP690550] (first compound 2 µM, partner dose 5 µM) | 114 |
| CCN(CC)CCNC(=O)c1c(C)[nH]c(/C=C2\C(=O)Nc3ccc(F)cc32)c1C [sunitinib] + CC(=O)O[C@@]12CO[C@@H]1C[C@H](O)[C@@]1(C)C(=O)[C@H](O)C3=C(C)[C@@H](OC(=O)[C@H](O)[C@@H](NC(=O)OC(C)(C)C)c4ccccc4)C[C@@](O)([C@@H](OC(=O)c4ccccc4)[C@H]21)C3(C)C [Docetaxel] (first compound 2 µM, partner dose 0.0005 µM) | 8.95 |
| COc1cc([C@@H]2c3cc4c(cc3[C@@H](O[C@@H]3O[C@@H]5CO[C@@H](C)O[C@H]5[C@H](O)[C@H]3O)[C@H]3COC(=O)[C@H]23)OCO4)cc(OC)c1O [etoposide] + Cc1cc(Nc2cc(N3CCN(C)CC3)nc(/C=C/c3ccccc3)n2)n[nH]1 [ENMD2076] (first compound 0.1 µM, partner dose 0.2 µM) | 74.9 |
| COc1cc([C@@H]2c3cc4c(cc3[C@@H](O[C@@H]3O[C@@H]5CO[C@@H](C)O[C@H]5[C@H](O)[C@H]3O)[C@H]3COC(=O)[C@H]23)OCO4)cc(OC)c1O [etoposide] + O=C(CCCCCCC(=O)Nc1ccccc1)NO [vorinostat] (first compound 0.1 µM, partner dose 0.4 µM) | 70.2 |
| COc1cc([C@@H]2c3cc4c(cc3[C@@H](O[C@@H]3O[C@@H]5CO[C@@H](C)O[C@H]5[C@H](O)[C@H]3O)[C@H]3COC(=O)[C@H]23)OCO4)cc(OC)c1O [etoposide] + CCN(CC)CCNC(=O)c1c(C)[nH]c(/C=C2\C(=O)Nc3ccc(F)cc32)c1C [sunitinib] (first compound 0.1 µM, partner dose 2 µM) | 75.4 |
| Cn1cnc2c(F)c(Nc3ccc(Br)cc3Cl)c(C(=O)NOCCO)cc21 [selumetinib] + CN(NC(=O)CC(=O)NN(C)C(=S)c1ccccc1)C(=S)c1ccccc1 [STA4783] (first compound 0.075 µM, partner dose 0.03 µM) | 10.2 |
| COc1cc([C@@H]2c3cc4c(cc3[C@@H](O[C@@H]3O[C@@H]5CO[C@@H](C)O[C@H]5[C@H](O)[C@H]3O)[C@H]3COC(=O)[C@H]23)OCO4)cc(OC)c1O [etoposide] + CN1CCN(c2ccc3nc(-c4c(N)c5c(F)cccc5[nH]c4=O)[nH]c3c2)CC1 [Dovitinib] (first compound 0.1 µM, partner dose 0.5 µM) | 19.7 |
| COc1cc([C@@H]2c3cc4c(cc3[C@@H](O[C@@H]3O[C@@H]5CO[C@@H](C)O[C@H]5[C@H](O)[C@H]3O)[C@H]3COC(=O)[C@H]23)OCO4)cc(OC)c1O [etoposide] + CC(=O)c1c(C)c2cnc(Nc3ccc(N4CCNCC4)cn3)nc2n(C2CCCC2)c1=O [palbociclib] (first compound 0.1 µM, partner dose 0.2 µM) | 73.7 |
| CCN(CC)CCNC(=O)c1c(C)[nH]c(/C=C2\C(=O)Nc3ccc(F)cc32)c1C [sunitinib] + Cc1ccc(NC(=O)c2cccc(N(C)C)c2)cc1NC(=O)c1ccc(O)cc1 [ZM336372] (first compound 2 µM, partner dose 10 µM) | 69 |
| COc1cc([C@@H]2c3cc4c(cc3[C@@H](O[C@@H]3O[C@@H]5CO[C@@H](C)O[C@H]5[C@H](O)[C@H]3O)[C@H]3COC(=O)[C@H]23)OCO4)cc(OC)c1O [etoposide] + CO[C@H]1C[C@@H]2CC[C@@H](C)[C@@](O)(O2)C(=O)C(=O)N2CCCC[C@H]2C(=O)O[C@H]([C@H](C)C[C@@H]2CC[C@@H](OCCO)[C@H](OC)C2)CC(=O)[C@H](C)/C=C(\C)[C@@H](O)[C@@H](OC)C(=O)[C@H](C)C[C@H](C)/C=C/C=C/C=C/1C [everolimus] (first compound 0.1 µM, partner dose 0.1 µM) | 54.7 |
| CCN(CC)CCNC(=O)c1c(C)[nH]c(/C=C2\C(=O)Nc3ccc(F)cc32)c1C [sunitinib] + CC1(C)NC(=O)N(c2ccc([N+](=O)[O-])c(C(F)(F)F)c2)C1=O [nilutamide] (first compound 2 µM, partner dose 5 µM) | 63.7 |
| Cn1cnc2c(F)c(Nc3ccc(Br)cc3Cl)c(C(=O)NOCCO)cc21 [selumetinib] + CCN(CC)CCNC(=O)c1c(C)[nH]c(/C=C2\C(=O)Nc3ccc(F)cc32)c1C [sunitinib] (first compound 0.075 µM, partner dose 2 µM) | 57.1 |
| Cn1cnc2c(F)c(Nc3ccc(Br)cc3Cl)c(C(=O)NOCCO)cc21 [selumetinib] + COc1ccc(Cl)c(Nc2nc3ccccc3nc2NS(=O)(=O)c2cccc(NC(=O)C(C)(C)N)c2)c1 [XL147] (first compound 0.075 µM, partner dose 4 µM) | 78 |
